# Assay results: the supplement of paper PMC8728848
# The other results are listed elsewhere or left out.
# B1: BT3172pd (Bacteroides thetaiotaomicron) (protein)
# chain: MLPLRAEHYYYKQISLKEGLPSNVRCILRDEQGFIWIGTKAGLGKFDGHQLKRYKHQANDPHSLLHNLIYQIAEDKQHNIWILTEKGIARYQQQSNNFTFPTDEEGNYITAYSFCLVPDGILFGGKDRIYKYSYKDSSLRLLQYFNANSFKITALSVWDSKTLLCCSRWTGLYLVDLQTGEHRRPPFDCGPEITSMITDSKNRIWIAPYSGGLRCYSRDGKLSASYTTHNSSLSNDIVLSLAEREEQLWIGTDGGGINILHPETGEISQLEYIPGRENYSLPANSILCLHNDYNNNVWAGSTCNGLISIREVSMKTYTDVVPGNDRGLSNGTVRSLYRQSPDSIWIGTDGGGINLFSPHTEKFTHYSSTWGDKVAFISGFTPGKLLISLFSKGVFVFNPATGEKQPFTIIDKETTTRLCNRGKSVNLYQNTPNTVLFLGDHIYQYHLKEKKFSTITEEEGKDIVGTLVPFDHQENLTYINDIKHIYELDDQTSRLKTVFECYTDTVISSVSHDEQGHFWIGSNFGLIHYDPVLKSRTLVPTNLFTEINMVLCDQKGKVWIGVDNMLFAYFIKEQKFVLFGESNGAIQNEYLPNARLVNEQGDAYIGGVKGMLRIDGQLLLNTSEMPELQLLDITINGESANHEWYNHPAKISVPWNSNISIRIMSREEDIFRQKIYRYQIEGLNNEYTESYNPELVIRSLLPGSYRIMASCTAKDGSWIPDQQVLELTVLPPWYRTHHHHHH
# What was measured:
# Assay in all cases: glycan array binding signal (z-score within array); higher = stronger binding
# Conditions in all cases: glycan notation: IUPAC condensed, linker removed
# [1] = molecular target: GlcNAc(b1-3)Gal(b1-4)GlcNAc(b1-3)Gal(b1-4)GlcNAc(b1-3)GalNAc
# In short: (§1)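 The binding signal is a Z-score computed within each array. Data were drawn from 3228 arrays in the Consortium for Functional Glycomics database, restricted to those with a known protein sequence. Scores were averaged over arrays of the same protein sequence at different concentrations or buffers, and over linkers, and negative values can be taken as non-binding.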
# [2] = molecular target: GlcNAc(b1-3)Gal(b1-4)GlcNAc(b1-3)GalNAc
# In short: as §1
# [3] = molecular target: GlcNAc(b1-3)Gal(b1-4)GlcNAc(b1-3)[GlcNAc(b1-3)Gal(b1-4)GlcNAc(b1-3)]GalNAc
# In short: as §1
# [4] = molecular target: GlcNAc(b1-3)Gal(b1-4)GlcNAc(b1-6)[Gal(b1-3)]GalNAc
# In short: as §1
# [5] = molecular target: GlcNAc(b1-3)Gal(b1-4)GlcNAc(b1-6)[GlcNAc(b1-3)Gal(b1-3)]GalNAc
# In short: as §1
# [6] = molecular target: GlcNAc(b1-3)Gal(b1-4)GlcNAc(b1-6)[GlcNAc(b1-3)]Gal(b1-4)GlcNAc
# In short: as §1
# GlcNAc(b1-3)GalNAc = molecular target: GlcNAc(b1-3)GalNAc
# In short: as §1
# GlcNAc(b1-3)Man = molecular target: GlcNAc(b1-3)Man
# In short: as §1
# [7] = molecular target: GlcNAc(b1-3)[GlcNAc(b1-4)][GlcNAc(b1-6)]GlcNAc
# In short: as §1
# [8] = molecular target: GlcNAc(b1-3)[GlcNAc(b1-6)]Gal(b1-4)GlcNAc
# In short: as §1
# [9] = molecular target: GlcNAc(b1-3)[GlcNAc(b1-6)]GalNAc
# In short: as §1
# [10] = molecular target: GlcNAc(b1-4)Gal(b1-4)GlcNAc
# In short: as §1
# GlcNAc(b1-4)GlcNAc = molecular target: GlcNAc(b1-4)GlcNAc
# In short: as §1
# [11] = molecular target: GlcNAc(b1-4)GlcNAc(b1-4)GlcNAc
# In short: as §1
# [12] = molecular target: GlcNAc(b1-4)GlcNAc(b1-4)GlcNAc(b1-4)GlcNAc(b1-4)GlcNAc
# In short: as §1
# [13] = molecular target: GlcNAc(b1-4)GlcNAc(b1-4)GlcNAc(b1-4)GlcNAc(b1-4)GlcNAc(b1-4)GlcNAc
# In short: as §1
# [14] = molecular target: GlcNAc(b1-4)[GlcNAc(b1-6)]GalNAc
# In short: as §1
# [15] = molecular target: GlcNAc(b1-6)Gal(b1-4)GlcNAc
# In short: as §1
# GlcNAc(b1-6)GalNAc = molecular target: GlcNAc(b1-6)GalNAc
# In short: as §1
# [16] = molecular target: GlcNAc6S(b1-3)Gal(b1-4)GlcNAc
# In short: as §1
# Kdn(a2-3)Gal(b1-3)GalNAc = molecular target: Kdn(a2-3)Gal(b1-3)GalNAc
# In short: as §1
# Kdn(a2-3)Gal(b1-3)GlcNAc = molecular target: Kdn(a2-3)Gal(b1-3)GlcNAc
# In short: as §1
# Kdn(a2-3)Gal(b1-4)Glc = molecular target: Kdn(a2-3)Gal(b1-4)Glc
# In short: as §1
# Kdn(a2-3)Gal(b1-4)GlcNAc = molecular target: Kdn(a2-3)Gal(b1-4)GlcNAc
# In short: as §1
# [17] = molecular target: Kdn(a2-3)Gal(b1-4)[Fuc(a1-3)]GlcNAc
# In short: as §1
# Kdn(a2-6)Gal(b1-4)GlcNAc = molecular target: Kdn(a2-6)Gal(b1-4)GlcNAc
# In short: as §1
# [18] = molecular target: Man(a1-2)Man(a1-2)Man(a1-3)Man
# In short: as §1
# [19] = molecular target: Man(a1-2)Man(a1-2)Man(a1-6)[Man(a1-3)]Man
# In short: as §1
# Man(a1-2)Man(a1-3)Man = molecular target: Man(a1-2)Man(a1-3)Man
# In short: as §1
# [20] = molecular target: Man(a1-2)Man(a1-3)[Man(a1-2)Man(a1-6)]Man
# In short: as §1
binder,measurement,setting,value
B1,glycan array binding signal (z-score),[1],-0.204
same,glycan array binding signal (z-score),[2],-0.116
same,glycan array binding signal (z-score),[3],0.209
same,glycan array binding signal (z-score),[4],0.458
same,glycan array binding signal (z-score),[5],-0.493
same,glycan array binding signal (z-score),[6],-0.139
same,glycan array binding signal (z-score),GlcNAc(b1-3)GalNAc,3.09
same,glycan array binding signal (z-score),GlcNAc(b1-3)Man,0.147
same,glycan array binding signal (z-score),[7],-0.262
same,glycan array binding signal (z-score),[8],0.106
same,glycan array binding signal (z-score),[9],-0.217
same,glycan array binding signal (z-score),[10],-0.204
same,glycan array binding signal (z-score),GlcNAc(b1-4)GlcNAc,-0.008
same,glycan array binding signal (z-score),[11],-1.4
same,glycan array binding signal (z-score),[12],-0.424
same,glycan array binding signal (z-score),[13],0.402
same,glycan array binding signal (z-score),[14],-0.517
same,glycan array binding signal (z-score),[15],-0.207
same,glycan array binding signal (z-score),GlcNAc(b1-6)GalNAc,-1.19
same,glycan array binding signal (z-score),[16],-0.266
same,glycan array binding signal (z-score),Kdn(a2-3)Gal(b1-3)GalNAc,0.378
same,glycan array binding signal (z-score),Kdn(a2-3)Gal(b1-3)GlcNAc,-0.344
same,glycan array binding signal (z-score),Kdn(a2-3)Gal(b1-4)Glc,-1.59
same,glycan array binding signal (z-score),Kdn(a2-3)Gal(b1-4)GlcNAc,2.27
same,glycan array binding signal (z-score),[17],0.137
same,glycan array binding signal (z-score),Kdn(a2-6)Gal(b1-4)GlcNAc,0.875
same,glycan array binding signal (z-score),[18],0.715
same,glycan array binding signal (z-score),[19],-0.454
same,glycan array binding signal (z-score),Man(a1-2)Man(a1-3)Man,0.341
same,glycan array binding signal (z-score),[20],-0.429
